Assay results reported in PubChem BioAssay AID360 (National Center for Advancing Translational Sciences (NCATS), 2006).
About 550 (1.1%) of roughly 48,000 compounds were called active. Another 4% or so got no clear call; they are omitted. No stated cut-off is given here; in the data, active means potency below about 15 µM; inconclusive means mostly about 16 µM to 33 µM; inactive means weaker than that. This is one part of the list.

target: Lysosomal acid glucosylceramidase (Homo sapiens) (UniProt P04062); test: Glucocerebrosidase; conditions: purified enzyme, resorufin glucoside fluorescence (screen aimed at inhibitors), 20 min;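 further: the screen sought inhibitors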
Procedure, shortened: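 Compounds titrated against 0.2 nM normal enzyme, 30 uM resorufin beta-D-glucopyranoside substrate, citrate/phosphate buffer with taurocholate and tween-20, pH 5.9. Reaction ran 20 min at room temperature; fluorescence (Ex 548/Em 600) gave AC50.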
Potency means the concentration at half of the fitted maximal effect.

Chain of UniProt P04062 (P04062 whole entry, looked up): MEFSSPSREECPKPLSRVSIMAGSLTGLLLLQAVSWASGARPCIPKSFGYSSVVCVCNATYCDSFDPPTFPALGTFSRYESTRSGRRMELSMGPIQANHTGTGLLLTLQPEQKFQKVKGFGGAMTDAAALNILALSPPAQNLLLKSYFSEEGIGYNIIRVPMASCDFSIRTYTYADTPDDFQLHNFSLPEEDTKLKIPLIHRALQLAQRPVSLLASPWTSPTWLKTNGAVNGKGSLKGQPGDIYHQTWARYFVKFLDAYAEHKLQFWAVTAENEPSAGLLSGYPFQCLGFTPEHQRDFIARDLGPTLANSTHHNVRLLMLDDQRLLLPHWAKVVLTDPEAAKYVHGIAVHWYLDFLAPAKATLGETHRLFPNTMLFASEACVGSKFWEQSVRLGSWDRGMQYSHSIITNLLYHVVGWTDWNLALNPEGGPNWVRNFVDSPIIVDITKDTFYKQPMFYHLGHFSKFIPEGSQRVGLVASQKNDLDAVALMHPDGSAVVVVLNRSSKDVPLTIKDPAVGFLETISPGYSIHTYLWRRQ

Potency, inactive:
CCc1cc2c(CN3CCN(CC)CC3)cc(=O)oc2cc1O, O=C(Nc1ccccc1C(=O)N1CCOCC1)c1noc2c1CCCC2 > 76.9 µM, CNc1nnc(CSc2nc(C)cc(C)n2)s1 > 76.9 µM, CC(=O)OCC(OC(C)=O)C(OC(C)=O)C(OC(C)=O)C(=O)Nc1ccc(C)cc1 (stereo not drawn) > 76.9 µM, COc1ccc(NC(=O)c2cc(-c3cc(C)cc(C)c3O)n[nH]2)cc1Cl > 76.9 µM, COc1ccc(NC(=O)CCCN2C(=O)CCC2=O)cc1Cl > 76.9 µM, CCc1ccc(-n2c(SCC(=O)Nc3cc(C)[nH]n3)nc3[nH]ncc3c2=O)cc1 > 76.9 µM, CC1Cc2ccccc2N1C(=O)c1ccnc(C(C)(C)C)c1 (stereo not drawn) > 76.9 µM, CCN(CC)c1cc2nonc2c2nonc12 > 76.9 µM, CC1CCCCC1NC(=O)Cn1cnc2ccccc2c1=O (stereo not drawn) > 76.9 µM, CCOc1nc(NCCC2=CCCCC2)nc(N2CCOCC2)n1 > 76.9 µM, CC1CN(CCC(=O)Nc2ccc3c(c2)OCO3)CC(C)O1 (stereo not drawn) > 76.9 µM, CCn1c(SCC(=O)c2ccc3c(c2)OCCO3)nnc1-c1ccco1 > 76.9 µM, COc1ccc2[nH]cc(C(=O)CN3CCC(C)CC3)c2c1 > 76.9 µM, COCCN1C(=O)c2oc3cc(C)c(C)cc3c(=O)c2C1c1cccc(O)c1 (stereo not drawn) > 76.9 µM, CC(C)(C)OC(=O)NCCc1nnc(SCC(=O)c2ccc(Cl)cc2)o1 > 76.9 µM, Cc1ccc2nc(Nc3nc(C)cc(C(F)(F)F)n3)nc(C)c2c1 > 76.9 µM, COC(=O)Cn1c(CCS(=O)(=O)c2ccc(C)c(C)c2)nc2ccccc21, O=C(c1cc2c(=O)oc3ccccc3c2s1)N1CCN(c2ccccn2)CC1 > 76.9 µM, COc1ccccc1N=c1scc(-c2ccc3c(c2)NC(=O)CO3)n1CC1CCCO1 (stereo not drawn) > 76.9 µM, CC[N+](CC)(CC)C/C(N)=N/O > 76.9 µM, Cc1nc2ccccc2c(=O)n1NC(=O)c1ccc(F)cc1Cl > 76.9 µM, Cc1nnc(NC(=O)c2ccc3c(c2)C(=O)N(CC2CCCO2)C3=O)s1 (stereo not drawn) > 76.9 µM, Cc1cc(C)cc(-n2nnc(C(=O)NCc3ccc(Cl)cc3)c2N)c1 > 76.9 µM, COc1ccc(OCCC(=O)Nc2cc(C)on2)cc1 > 76.9 µM, O=C(COc1cccc2cccnc12)NCC(F)(F)F > 76.9 µM, O=C(NC(C(=O)O)c1ccccc1)c1ccc(S(=O)(=O)N2CCOCC2)cc1 (stereo not drawn) > 76.9 µM, Cc1cc(NC(=O)COn2nnc3ccc(Cl)cc32)no1 > 76.9 µM, CCC(C)NC(=O)c1c(N)n(/N=C/c2ccccn2)c2nc3ccccc3nc12 (stereo not drawn) > 76.9 µM, O=C(c1ccc2c3c(cccc13)CC2)N1CCOCC1 > 76.9 µM, Cc1ccc(CN2CCN(C(=O)C3CCC3)CC2)cc1 > 76.9 µM, Cc1ccc(NC(=O)Cn2nc(C)c3ccccc3c2=O)c(C)c1 > 76.9 µM, CN(C)S(=O)(=O)c1ccc(NC(=O)c2cc3ccccc3o2)cc1 > 76.9 µM, COc1ccc(CN(C(=O)Cn2nnc3ccccc32)C(C(=O)NC(C)(C)C)c2ccco2)cc1 (stereo not drawn) > 76.9 µM, CN1CCN(CC(O)COCc2ccc3c(c2)OCO3)CC1 (stereo not drawn) > 76.9 µM, O=C(Cn1nnc(-c2ccccc2)n1)OCc1ccccc1 > 76.9 µM, COc1cc(NC(=O)CN2C(=O)c3ccccc3S2(=O)=O)c(OC)cc1Cl > 76.9 µM, COc1ccc(C(=O)Nc2ccc(S(=O)(=O)N3CCCCC3)cc2)cc1OC > 76.9 µM, COc1ccc(CNC(=O)Nc2cccc(C)c2)cc1 > 76.9 µM, CCCOC(=O)CN1C(=O)c2ccc(C(=O)OCCC)cc2C1=O > 76.9 µM, CCOc1ccc(/C(O)=C2/C(=O)C(=O)N(CCOCCO)C2c2ccccn2)cc1 (stereo not drawn) > 76.9 µM, CCN(CC)C(=O)N1CCN(S(=O)(=O)c2ccc(C)c(C)c2)CC1 > 76.9 µM, CC(C)(C)OC(=O)N[C@@H](Cc1c[nH]c2ccccc12)c1nnc(SCC(N)=O)o1 > 76.9 µM, CCCn1c(N2CCC(Cc3ccccc3)CC2)nc2c1c(=O)[nH]c(=O)n2C > 76.9 µM, Cc1ccc2c(SCC(=O)NCc3ccco3)nc(-c3ccc(F)cc3)nc2c1 > 76.9 µM, CCCOc1cccc(C(=O)Nc2nnn(CCC)n2)c1 > 76.9 µM, COC1=C(OC)c2ccccc2C(C(=O)O)N/C1=C(/C)Nc1ccncc1 (stereo not drawn) > 76.9 µM, CC(=O)Nc1ccccc1OCC(=O)c1cc(C)n(Cc2cccs2)c1C > 76.9 µM, CC(C)C(c1nnnn1C1CCCCC1)N1CCOCC1 (stereo not drawn) > 76.9 µM, CCOC(=O)c1cnn(-c2ncnc3c2oc2ccccc23)c1N > 76.9 µM, CCCCCn1c2nc3ccccc3nc2c2c(=O)n(CC3CCCO3)c(C)nc21 (stereo not drawn) > 76.9 µM, Cc1cccc(NC(=O)C23CCC(C)(/C(=N/O)C2)C3(C)C)c1 (stereo not drawn) > 76.9 µM, N#CCCn1nnc2ccccc21 > 76.9 µM, C#CCNc1nc(CC)nc2c1nnn2Cc1ccccc1F > 76.9 µM, CCn1c(SCC(=O)Nc2nc(C)c(C)s2)nnc1-c1cccnc1 > 76.9 µM, O=C(NCC(c1cccnc1)N1CCOCC1)c1cccc(Cl)c1 (stereo not drawn) > 76.9 µM, O=S(=O)(Nc1nccs1)c1cc(Cl)ccc1Cl > 76.9 µM, c1ccc(Cn2nnnc2C(c2cccnc2)N2CCN(c3ccccc3)CC2)cc1 (stereo not drawn) > 76.9 µM, CN(CCNC(=O)CCNC(=O)Cn1ccc2ccccc2c1=O)Cc1ccccc1 > 76.9 µM, CCC(=O)Nc1nnc(Cc2ccccc2)s1 > 76.9 µM, Cc1ccc(OCCC(=O)OCC(=O)N2c3ccccc3CC2C)cc1 (stereo not drawn) > 76.9 µM, Cc1ccc2[nH]c(=O)c(-c3nc4c(C)cccn4c3NCc3ccco3)cc2c1 > 76.9 µM, Cn1c(SCc2cccc3ccccc23)nnc1-c1ccco1 > 76.9 µM, CCOC(=O)c1ccc(COC(=O)c2cc(=O)[nH]c3ccccc23)o1 > 76.9 µM, CCOc1cc2[nH]c(=O)n(Cc3cccc(OC)c3)c(=O)c2cc1OCC > 76.9 µM, O=C(NCCc1cccc(F)c1)[C@@H]1CSC2c3ccccc3C(=O)N21 (stereo partly drawn) > 76.9 µM, O=C1CC(N2CCC(C(=O)N3CCCCC3)CC2)C(=O)N1 (stereo not drawn) > 76.9 µM, CCCOc1ccccc1C1NC(=O)NC(C)=C1C(=O)OCCOC (stereo not drawn) > 76.9 µM, CCCCc1c(C)nn(-c2nnc3c4ccccc4n(CC)c3n2)c1C, O=c1c2ccccc2n2nnnc2n1-c1ccccc1 > 76.9 µM, CC(=O)c1cc2c(cc1NS(=O)(=O)c1ccc(C)cc1)OCCO2 > 76.9 µM, O=C(c1cccc(F)c1)N1CCN(C(=O)C2CC2)CC1 > 76.9 µM, Cc1ccc(NC(=O)/C(CN(C)C)=N\O)cc1 > 76.9 µM, Cc1ccc(-c2nnc(COc3cccc(-n4cnnn4)c3)o2)cc1 > 76.9 µM, c1ccc2sc(SN3CCOCC3)nc2c1 > 76.9 µM, CC1CN(S(=O)(=O)c2ccc(-c3nc4ccccc4s3)cc2)CC(C)O1 (stereo not drawn) > 76.9 µM, Cc1cc(-n2c(C)cc(C(=O)CSc3nnnn3-c3ccccc3)c2C)no1 > 76.9 µM, Cc1c(C(=O)OCC(C)(C)CN(C)C)oc2ccccc12 > 76.9 µM, COCCn1c(C)cc(C(=O)CSc2nc3ccccc3o2)c1C > 76.9 µM, Cc1ccc2nc(NC(=O)CCNS(=O)(=O)c3ccc(Br)s3)sc2c1 > 76.9 µM, Cn1c(-c2ccc(F)cc2)cnc1SCC(=O)Nc1ccccc1N1CCOCC1 > 76.9 µM, CC(=O)N1C(C(=O)O)CSC1c1cccc(C)c1 (stereo not drawn) > 76.9 µM, Cc1nc2ccccc2c(=O)n1NCc1cc(Br)cs1 > 76.9 µM, COc1ccc(NC2=C(C(C)=O)C(c3ccc4c(c3)OCO4)C(C(C)=O)C(C)(O)C2)cc1 (stereo not drawn) > 76.9 µM, COC(=O)c1ccccc1NC(=O)Nc1cccnc1 > 76.9 µM, CC1(Cc2ccc3c(c2)OCO3)NC(=O)NC1=O (stereo not drawn) > 76.9 µM, Cc1cccc(-n2ncc3c(NCc4ccccn4)ncnc32)c1 > 76.9 µM, Cc1ccc(C(CC(=O)N2CCOCC2)c2ccco2)cc1 (stereo not drawn) > 76.9 µM, CCOC(=O)C1CCCCN1Cc1ccccc1C(F)(F)F (stereo not drawn) > 76.9 µM, COc1ccc(CCNC(=O)C2CCN(Cc3nc(-c4cccc(Cl)c4)oc3C)CC2)cc1OC > 76.9 µM, Cc1ccc2cccc(Oc3cnccn3)c2n1 > 76.9 µM, CCOC(=O)c1cnc2cc3c(cn2c1=O)CCCC3 > 76.9 µM

Potency, active:
COC(=O)c1ccc(C2C3=C(Nc4nnnn42)c2ccccc2OC3)cc1 (stereo not drawn) 8.19 µM
